Assay results: patent US20230312646A1, “ANTIBACTERIAL PEPTIDES” (priority 2020, published 2023)
At least one peptide structure holds a part that was inferred or is arguable (an end, a ring closure or a residue). For at least one compound, name, drawing or mass did not settle the structure. Numbered stars: 1 amine (or outer) side, 2 acyl side, 3 side chain; on linkers, the order of the positions; unused ones are H or OH. Square brackets hold non-standard residues; d marks the D form. Peptide text beside a SMILES is read from it. * marks the point of attachment. ξ: configuration not given here. Acryloyl(3-(3-pyridyl),E) = O=C(/C=C/c1cccnc1)*; Phe(3,4-Cl2) = N[C@@H](Cc1ccc(Cl)c(Cl)c1)C(=O)O; Phe(3,4-F2) = N[C@@H](Cc1ccc(F)c(F)c1)C(=O)O; Cinnamoyl(4-F) = O=C(/C=C/c1ccc(F)cc1)*; Caffeoyl = O=C(/C=C/c1ccc(O)c(O)c1)*; Hydrocinnamoyl = O=C(CCc1ccccc1)*; NH(4-MeO-phenyl) = COc1ccc(N*)cc1; NMeR = CN[C@@H](CCCNC(=N)N)C(=O)O; X2 = O=C(CN(Cc1ccccn1)[*:1])[*:2]; Cha = N[C@@H](CC1CCCCC1)C(=O)O; NMeD = CN[C@@H](CC(=O)O)C(=O)O; X1 = O=C(/C=C/c1ccc2ccccc2c1)*; ξOic = O=C(O)C1CC2CCCCC2N1; X6 = O=C(/C=C/c1ccccc1)*; CO = O=C([*:1])[*:2]

Target: T1, Escherichia coli SC (^EcSC) (Escherichia coli, UniProt P0A988)
T1 construct: His tag (inferred from the pET15b vector and Ni-NTA purification) (N); made in house; host or cells: E. coli
T1 sequence (P0A988 whole entry): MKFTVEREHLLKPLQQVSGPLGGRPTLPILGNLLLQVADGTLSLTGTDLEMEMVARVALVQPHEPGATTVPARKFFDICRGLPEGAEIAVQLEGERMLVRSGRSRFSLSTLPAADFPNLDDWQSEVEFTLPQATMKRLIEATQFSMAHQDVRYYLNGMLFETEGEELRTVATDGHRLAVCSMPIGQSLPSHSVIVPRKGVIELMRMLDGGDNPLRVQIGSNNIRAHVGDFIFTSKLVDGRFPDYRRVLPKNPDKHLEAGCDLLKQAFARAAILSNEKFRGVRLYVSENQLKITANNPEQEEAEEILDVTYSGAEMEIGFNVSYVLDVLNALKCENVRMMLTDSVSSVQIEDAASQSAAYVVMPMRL
Type: binding
Details: for ΔG (kcal/mol): ITC at 298.15 K (25° C.); for ΔG (kcal mol^-1): ITC at 25° C.
Protocol: The procedure has been described previously (Wolff, P.; Oliéric, V.; Briand, J. P.; Chaloin, O.; Dejaegere, A.; Dumas, P.; Ennifar, E.; Guichard, G.; Wagner, J.; Burnouf, D. Y., Structure-Based Design of Short Peptide Ligands Binding onto the E. coli Processivity Ring. J. Med. Chem. 2011, 54 (13), 4627-4637). Briefly, E.coli cells were transformed with plasmids pET15b containing the dnaN gene from E. coli and were grown in LB at 37° C. to OD 0.5, then induced by IPTG (0.1 mM) at 28° C. overnight. dnaN proteins fractions were first enriched on a Ni-NTA column, eluted with a histidine step (300 mM) and further purified on a Source Q column in buffer containing 20 mM Tris HCI pH 7.5, 0.5 mM EDTA and 10% (v/v) glycerol, using a gradient from 0 to 0.5 M NaCl. After a final ultracentrifugation (45 K, 1 h, 20° C.), soluble proteins were concentrated on a Centricon 30 K (Millipore) in the same buffer and stored at 4° C. in 2 M ammonium sulfate. Buffer exchange was performed on Centrikon 10 K at 4° C. before use and protein quality was assessed by DLS.
ITC experiments were performed using an iTC200 or a PEAQ-ITC instrument (Microcal Malvern Panalytical). Peptides (300 or 600 µM) were titrated at 25° C. by sequential injections (usually 2 µl each) into an SC solution (30 or 60 µM). Data were corrected for heat of injection by subtracting the signal of the titration of peptides into proteiN-free buffer solution (Hepes 10 mM pH 7.4, NaCl 0.15 M, EDTA 3 mM). Each titration was performed at least twice. Analyses of experimental data were performed following a classical treatment with the AFFINImeter software (https://www.affinimeter.com; S4S, Santiago de Compostela, Spain). In addition, kinetic information was obtained in some cases with kinITC as implemented in the software AFFINImeter.
All newly synthesized peptides were tested for their interaction with ^EcSC by ITC at 25° C. As a general rule, all thermodynamic profiles reveal an exothermic interaction, and a non-favorable entropic component. The resulting negative Gibb’s free energies characterize a spontaneous interaction. The analysis of raw data by the Affinimeter® software also gave access to kinetics rate constant of the interaction.

Row | SMILES | ΔG (kcal/mol) | ΔG (kcal mol^-1) | fold increase in affinity compared to peptide P32 (compared to P32) [fold]
1 | CC(C)C[C@H](NC(=O)[C@H](CC(=O)O)NC(=O)[C@H](CC1CCCCC1)NC(=O)[C@H](CCC(N)=O)NC(=O)/C=C/c1ccc(O)c(O)c1)C(=O)N[C@@H](Cc1ccccc1)C(=O)O [P21] (Caffeoyl-Q[Cha]DLF-OH) | -9.5 (± 0.1) kcal/mol |  | 
2 | CC(=O)N[C@@H](CCCNC(=N)N)C(=O)N[C@@H](CCC(N)=O)C(=O)N[C@@H](CC1CCCCC1)C(=O)N(C)[C@@H](CC(=O)O)C(=O)N[C@@H](CC(C)C)C(=O)N[C@@H](Cc1ccc(Cl)c(Cl)c1)C(=O)O [P36] (Ac-RQ[Cha][NMeD]L[Phe(3,4-Cl2)]-OH) |  | -8.9 (± 0.1) kcal mol^-1 | 
3 | CC(C)C[C@H](NC(=O)[C@H](CC(=O)O)NC(=O)[C@H](CC1CCCCC1)NC(=O)[C@H](CCC(N)=O)NC(=O)CNCc1ccccn1)C(=O)N[C@@H](Cc1ccccc1)C(=O)O [P8] (H-[X2]Q[Cha]DLF-OH) | -9.2 (± 0.1) kcal/mol |  | 
4 | CC(C)C[C@H](NC(=O)[C@H](CC(=O)O)N(C)C(=O)[C@H](CC1CCCCC1)NC(=O)[C@H](CCC(N)=O)NC(=O)/C=C/c1cccnc1)C(=O)N[C@@H](Cc1ccc(Cl)c(Cl)c1)C(=O)O [P38] ({Acryloyl(3-(3-pyridyl),E)}-Q[Cha][NMeD]L[Phe(3,4-Cl2)]-OH) |  | -10.1 (± 0.4) kcal mol^-1 | 
5 | CC(C)C[C@H](NC(=O)[C@@H]1CCCN1C(=O)[C@H](CC(C)C)NC(=O)[C@H](CC(=O)O)NC(=O)[C@H](CC1CCCCC1)NC(=O)[C@H](CCC(N)=O)NC(=O)/C=C/c1ccccc1)C(=O)O [P43] (X6-Q[Cha]DLPL-OH) |  | -9.4 (± 0.2) kcal mol^-1 | 
6 | CC(C)C[C@H](NC(=O)[C@H](CC(=O)O)NC(=O)[C@H](CC1CCCCC1)NC(=O)[C@H](CCC(N)=O)NC(=O)/C=C/c1ccc(F)cc1)C(=O)N[C@@H](Cc1ccccc1)C(=O)O [P18] ({Cinnamoyl(4-F)}-Q[Cha]DLF-OH) | -9.3 (± 0.2) kcal/mol |  | 
7 | CC(C)C[C@H](NC(=O)[C@H](CC(=O)O)NC(=O)[C@H](CC1CCCCC1)NC(=O)[C@H](CCC(N)=O)NC(=O)/C=C/c1ccc2ccccc2c1)C(=O)N[C@@H](Cc1ccccc1)C(=O)O [P20] (X1-Q[Cha]DLF-OH) | -9.6 (± 0.1) kcal/mol |  | 
8 | CC(C)C[C@H](NC(=O)[C@H](CC(=O)O)NC(=O)[C@H](CC1CCCCC1)NC(=O)[C@H](CCC(N)=O)NC(=O)CCc1ccccc1)C(=O)N[C@@H](Cc1ccccc1)C(=O)O [P19] (Hydrocinnamoyl-Q[Cha]DLF-OH) | -9.1 (± 0.05) kcal/mol |  | 
9 | COc1ccc(NC(=O)N[C@@H](CCC(N)=O)C(=O)N[C@@H](CC2CCCCC2)C(=O)N[C@@H](CC(=O)O)C(=O)N[C@@H](CC(C)C)C(=O)N[C@@H](Cc2ccccc2)C(=O)O)cc1 [P22] ({NH(4-MeO-phenyl)-CO}-Q[Cha]DLF-OH) | -9.8 (± 0.2) kcal/mol |  | 
10 | CC(C)C[C@H](NC(=O)[C@H](CC(=O)O)N(C)C(=O)[C@H](CC1CCCCC1)NC(=O)[C@H](CCC(N)=O)NC(=O)/C=C/c1ccc(F)cc1)C(=O)N[C@@H](Cc1ccc(F)c(F)c1)C(=O)O [P41] ({Cinnamoyl(4-F)}-Q[Cha][NMeD]L[Phe(3,4-F2)]-OH) |  | -9.6 (± 0.3) kcal mol^-1 | 
11 | CC(=O)N[C@@H](CCC(N)=O)C(=O)N[C@@H](CC1CCCCC1)C(=O)N[C@@H](CC(=O)O)C(=O)N[C@@H](CC(C)C)C(=O)N1C(C(=O)N[C@@H](CC(C)C)C(=O)O)CC2CCCCC21 (stereo partly drawn) [P47] (Ac-Q[Cha]DL[ξOic]L-OH) |  | -9.9 (± 0.2) kcal mol^-1 | 3
12 | CC(=O)N[C@@H](CCC(N)=O)C(=O)N[C@@H](CC1CCCCC1)C(=O)N(C)[C@@H](CC(=O)O)C(=O)N[C@@H](CC(C)C)C(=O)N[C@@H](Cc1ccc(Cl)c(Cl)c1)C(=O)O [P35] (Ac-Q[Cha][NMeD]L[Phe(3,4-Cl2)]-OH) |  | -10.1 (± 0.3) kcal mol^-1 | 
13 | CC(=O)N(C)[C@@H](CCCNC(=N)N)C(=O)N[C@@H](CCC(N)=O)C(=O)N[C@@H](CC1CCCCC1)C(=O)N(C)[C@@H](CC(=O)O)C(=O)N[C@@H](CC(C)C)C(=O)N[C@@H](Cc1ccc(Cl)c(Cl)c1)C(=O)O [P37] (Ac-[NMeR]Q[Cha][NMeD]L[Phe(3,4-Cl2)]-OH) |  | -9.6 (± 0.2) kcal mol^-1 | 
